Experimental data published in PubChem BioAssay AID492948 (National Center for Advancing Translational Sciences (NCATS), 2010).
The shares of active, inactive and inconclusive entries below differ from those in the screen. No potency is given beside an inconclusive call; the fits are too rough. The source made the active and inactive calls. Calls follow the shape of the dose curve; as a rule, active = well fitted activation curve with a large enough effect; inconclusive = small, poorly fitted or top-dose-only effect; inactive = no such curve, though single readings can be large or run the other way.

assay: qHTS Assay for Agonists of the Relaxin Receptor RXFP1: V1B Hit Validation; conditions: HEK293 V1B cells, cAMP TR-FRET, 30 min; series mostly up to 115 µM;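 also: counter-screen in HEK293 cells expressing V1B rather than RXFP1 for selectivity; nearly all actives have a fitted effect of over 65% in size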;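 as to activation: cAMP accumulation with PDE4 inhibitor Ro 20-1724 present during compound exposure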
Excerpt: NIH Chemical Genomics Center [NCGC]
NIH Molecular Libraries Probe Production Centers Network [MLPCN]
Assay Submitter (PI): Alexander Agoulnik
The relaxin hormone is involved in the variety of biological functions in normal tissues and diseases. The role of relaxin is well-established in female reproduction and parturition, mammary gland and endometrial development, maintenance of myometrial quiescence during pregnancy. Relaxin signaling through its G protein-coupled receptor (GPCR) RXFP1 results in ECM remodeling through regulation of collagen deposition, cell invasiveness, proliferation and overall tissue homeostasis. […] Recombinant human relaxin (rhRlx) is currently being tested in clinical trials as a protective agent in congestive heart failure, in treating severe preeclampsia, and as an anti-fibrotic agent in systemic sclerosis.
Upon relaxin binding RXFP1 activation leads to the activation of adenylate cyclase (AC) via Gs. cAMP will activate PKA, which phosphorylates many signaling proteins. Thus, detection of cAMP increase is an easy and reliable indication of relaxin receptor activation. To screen for agonists of the relaxin receptor, a HEK293T cell line stably transfected with RXFP1 was used. RXFP1 activation was assayed by changes in cAMP levels as detected with a time-resolved fluorescence energy transfer (TR-FRET) cAMP detection kit.
This assay measures activation of a cell expressing […], another GPCR targeted by relaxin, to determine the selectivity of compounds for RXFP1.
NCGC Assay Protocol Summary:
This is a cell-based assay for cAMP second messenger response to screen for agonists of the RXFP2 receptor. The assay was conducted in the presence of a PDE4 inhibitor (Ro 20174). The cells were lysed and the cAMP levels were measured with a TR-FRET cAMP kit. Presence of cAMP in the cell lysate disrupts binding between the cryptate-labeled anti-cAMP and d2-labeled cAMP pair, leading to a decrease in the TR-FRET signal. Data were normalized to the controls for basal activity (buffer only) and 100% activity (29 nM porcine relaxin). The EC50 values were determined from concentration-response data modeled with the standard Hill equation
1536-well assay protocol for the HEK293 V1B cAMP assay:
(1) Add 3 ul HEK293 RXFP2 cell culture. 2000 cells/well in DMEM/F12, 10% FBS, 1x Pen/Strep (dispensed offline with MultiDrop Combi).
(3) Add 23 nl compounds in DMSO solution. Final concentration was 0.5 - 58 uM.
(4) Incubate 30 min at 37C, 5% CO2.
(5) Add 1 ul cAMP-d2 in lysis buffer (HTRF cAMP HiRange kit, CisBio).
(6) Add 1 ul anti-cAMP antibody-cryptate in lysis buffer (HTRF cAMP HiRange kit, CisBio).
(7) Incubate 30 min at room temperature.
(6) Detect the assay plate in a ViewLux plate reader (PerkinElmer) with Ex=320 nm, Em1=615 nm and Em2=665 nm. […]
Potency is read from the fitted curve at half-maximal effect; tags tell the direction and shape of the fitted curve.

SMILES | Potency
CCC(Oc1cc(Cl)ccc1Cl)C(=O)N1CCC2(CC1)OCCO2 (centres undefined) | inactive
Cn1c(O)c(N=Nc2cccc(S(=O)(=O)N3CCOCC3)c2)c(=O)n(C)c1=O | active: 13.8 µM
CCNC(=O)[C@H]1O[C@@H](n2cnc3c(N)ncnc32)[C@H](O)[C@@H]1O | active: 1.94 µM
Cc1ccc(-c2nn3c(C)nnc3c3ccccc23)cc1S(=O)(=O)NCCO | inconclusive [activator, partial curve]
